Results: the GPR68 mutational scans of Howard et al. (2025)

B1: GPR68, Q15743 (parent)
chain: MGNITADNSSMSCTIDHTIHQTLAPVVYVTVLVVGFPANCLSLYFGYLQIKARNELGVYLCNLTVADLFYICSLPFWLQYVLQHDNWSHGDLSCQVCGILLYENIYISVGFLCCISVDRYLAVAHPFRFHQFRTLKAAVGVSVVIWAKELLTSIYFLMHEEVIEDENQHRVCFEHYPIQAWQRAINYYRFLVGFLFPICLLLASYQGILRAVRRSHGTQKSRKDQIQRLVLSTVVIFLACFLPYHVLLLVRSVWEASCDFAKGVFNAYHFSLLLTSFNCVADPVLYCFVSETTHRDLARLRGACLAFLTCSRTGRAREAYPLGAPEASGKSGAQGEEPELLTKLHPAFQTPNSPGSGGFPTGRLA

What was measured:
[1] = variants of: B1; test: cAMP reporter score (Enrich2 score, wild type = 0); higher = more signal; HEK293T, FACS bins
[2] = variants of: B1; test: surface expression score (Enrich2 score, wild type = 0); higher = more signal; HEK293T, FACS bins

| Variant | cAMP reporter score ([1]; pH 5.5) | cAMP reporter score ([1]; pH 6) | cAMP reporter score ([1]; pH 6, modulator: ogerin) | cAMP reporter score ([1]; pH 6.5, modulator: ogerin) | surface expression score [2] |
| --- | --- | --- | --- | --- | --- |
| MGNITADNSSMSCTIDHTIHQTLAPVVYVTVLVVGFPANCLSLYFGYLQIKARNELGVYLCNLTVADLFYICSLPFWLQYVLQHDNWSHGDLSCQVCGILLYENIYISVGFLCCISVDRYLAVAHPFRFHQFRTLKAAVGVSVVIWAKELLTSIYFLMHEEVIEDENQHRVCFEHYPMQAWQRAINYYRFLVGFLFPICLLLASYQGILRAVRRSHGTQKSRKDQIQRLVLSTVVIFLACFLPYHVLLLVRSVWEASCDFAKGVFNAYHFSLLLTSFNCVADPVLYCFVSETTHRDLARLRGACLAFLTCSRTGRAREAYPLGAPEASGKSGAQGEEPELLTKLHPAFQTPNSPGSGGFPTGRLA [I178M] | 0.631 | 1.28 | 0.622 | 1.84 | 0.49 |
| MGNITADNSSMSCTIDHTIHQTLAPVVYVTVLVVGFPANCLSLYFGYLQIKARNELGVYLCNLTVADLFYICSLPFWLQYVLQHDNWSHGDLSCQVCGILLYENIYISVGFLCCISVDRYLAVAHPFRFHQFRTLKAAVGVSVVIWAKELLTSIYFLMHEEVIEDENQHRVCFEHYPNQAWQRAINYYRFLVGFLFPICLLLASYQGILRAVRRSHGTQKSRKDQIQRLVLSTVVIFLACFLPYHVLLLVRSVWEASCDFAKGVFNAYHFSLLLTSFNCVADPVLYCFVSETTHRDLARLRGACLAFLTCSRTGRAREAYPLGAPEASGKSGAQGEEPELLTKLHPAFQTPNSPGSGGFPTGRLA [I178N] | -1.14 | -0.814 | -0.843 | 0.472 | -0.955 |
| MGNITADNSSMSCTIDHTIHQTLAPVVYVTVLVVGFPANCLSLYFGYLQIKARNELGVYLCNLTVADLFYICSLPFWLQYVLQHDNWSHGDLSCQVCGILLYENIYISVGFLCCISVDRYLAVAHPFRFHQFRTLKAAVGVSVVIWAKELLTSIYFLMHEEVIEDENQHRVCFEHYPPQAWQRAINYYRFLVGFLFPICLLLASYQGILRAVRRSHGTQKSRKDQIQRLVLSTVVIFLACFLPYHVLLLVRSVWEASCDFAKGVFNAYHFSLLLTSFNCVADPVLYCFVSETTHRDLARLRGACLAFLTCSRTGRAREAYPLGAPEASGKSGAQGEEPELLTKLHPAFQTPNSPGSGGFPTGRLA [I178P] | -0.566 | -1.04 | -0.356 | -0.739 | -1.16 |
| MGNITADNSSMSCTIDHTIHQTLAPVVYVTVLVVGFPANCLSLYFGYLQIKARNELGVYLCNLTVADLFYICSLPFWLQYVLQHDNWSHGDLSCQVCGILLYENIYISVGFLCCISVDRYLAVAHPFRFHQFRTLKAAVGVSVVIWAKELLTSIYFLMHEEVIEDENQHRVCFEHYPQQAWQRAINYYRFLVGFLFPICLLLASYQGILRAVRRSHGTQKSRKDQIQRLVLSTVVIFLACFLPYHVLLLVRSVWEASCDFAKGVFNAYHFSLLLTSFNCVADPVLYCFVSETTHRDLARLRGACLAFLTCSRTGRAREAYPLGAPEASGKSGAQGEEPELLTKLHPAFQTPNSPGSGGFPTGRLA [I178Q] | -0.235 | -0.926 | -0.428 | -0.961 | -0.334 |

Scores with a large standard error are left out. The source holds two more conditions with little spread; they are left out. Read del as a deletion of the residues named and ins as an insertion between two positions. For some assays here: The concentration of ogerin is not given here.
